The supplement of paper PMC8728848
Some of the results follow.

What was measured:
Experiment in all cases: glycan array binding signal (z-score within array); higher = stronger binding
Details in all cases: glycan notation: IUPAC condensed, linker removed
[1] = molecular target: Fuc(a1-2)[Gal(a1-3)]Gal(b1-4)GlcNAc(b1-2)Man(a1-3)[Fuc(a1-2)[Gal(a1-3)]Gal(b1-4)GlcNAc(b1-2)Man(a1-6)]Man(b1-4)GlcNAc(b1-4)GlcNAc
In short: (§1)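 Glycan array binding is given as a within-array Z-score, which can be read as non-binding when negative. The arrays, 3228 of them, came from the Consortium for Functional Glycomics database and were retained only where the protein sequence was available. Z-scores were averaged across arrays of the same protein sequence at different concentrations or buffers and across linkers.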

[2] = molecular target: Fuc(a1-2)[Gal(a1-3)]Gal(b1-4)GlcNAc(b1-2)Man(a1-3)[Fuc(a1-2)[Gal(a1-3)]Gal(b1-4)GlcNAc(b1-2)Man(a1-6)]Man(b1-4)GlcNAc(b1-4)[Fuc(a1-6)]GlcNAc
In short: as §1

[3] = molecular target: Fuc(a1-2)[Gal(a1-3)]Gal(b1-4)GlcNAc(b1-3)GalNAc
In short: as §1

[4] = molecular target: Fuc(a1-2)[Gal(a1-3)]Gal(b1-4)GlcNAc(b1-3)[Fuc(a1-2)[Gal(a1-3)]Gal(b1-4)GlcNAc(b1-6)]GalNAc
In short: as §1

[5] = molecular target: Fuc(a1-2)[Gal(a1-3)]Gal(b1-4)GlcNAc(b1-6)GalNAc
In short: as §1

[6] = molecular target: Fuc(a1-2)[Gal(a1-3)]Gal(b1-4)[Fuc(a1-3)]Glc
In short: as §1

[7] = molecular target: Fuc(a1-2)[Gal(a1-3)]Gal(b1-4)[Fuc(a1-3)]GlcNAc
In short: as §1

[8] = molecular target: Fuc(a1-2)[Gal(a1-3)]Gal(b1-4)[Fuc(a1-3)]GlcNAc(b1-3)GalNAc
In short: as §1

[9] = molecular target: Fuc(a1-2)[Gal(a1-4)]Gal(b1-4)GlcNAc
In short: as §1

[10] = molecular target: Fuc(a1-2)[GalNAc(a1-3)]Gal
In short: as §1

[11] = molecular target: Fuc(a1-2)[GalNAc(a1-3)]Gal(b1-3)GalNAc(a1-3)[Fuc(a1-2)]Gal(b1-4)GlcNAc
In short: as §1

[12] = molecular target: Fuc(a1-2)[GalNAc(a1-3)]Gal(b1-3)GalNAc(b1-3)Gal(a1-4)Gal(b1-4)Glc
In short: as §1

[13] = molecular target: Fuc(a1-2)[GalNAc(a1-3)]Gal(b1-3)GlcNAc
In short: as §1

[14] = molecular target: Fuc(a1-2)[GalNAc(a1-3)]Gal(b1-3)GlcNAc(b1-2)Man(a1-3)[Fuc(a1-2)[GalNAc(a1-3)]Gal(b1-3)GlcNAc(b1-2)Man(a1-6)]Man(b1-4)GlcNAc(b1-4)GlcNAc
In short: as §1

[15] = molecular target: Fuc(a1-2)[GalNAc(a1-3)]Gal(b1-3)GlcNAc(b1-2)Man(a1-3)[Fuc(a1-2)[GalNAc(a1-3)]Gal(b1-3)GlcNAc(b1-2)Man(a1-6)]Man(b1-4)GlcNAc(b1-4)[Fuc(a1-6)]GlcNAc
In short: as §1

[16] = molecular target: Fuc(a1-2)[GalNAc(a1-3)]Gal(b1-3)GlcNAc(b1-3)GalNAc
In short: as §1

[17] = molecular target: Fuc(a1-2)[GalNAc(a1-3)]Gal(b1-3)GlcNAc(b1-6)GalNAc
In short: as §1

[18] = molecular target: Fuc(a1-2)[GalNAc(a1-3)]Gal(b1-4)Glc
In short: as §1

[19] = molecular target: Fuc(a1-2)[GalNAc(a1-3)]Gal(b1-4)GlcNAc
In short: as §1

[20] = molecular target: Fuc(a1-2)[GalNAc(a1-3)]Gal(b1-4)GlcNAc(b1-2)Man
In short: as §1

[21] = molecular target: Fuc(a1-2)[GalNAc(a1-3)]Gal(b1-4)GlcNAc(b1-2)Man(a1-3)[Fuc(a1-2)[GalNAc(a1-3)]Gal(b1-4)GlcNAc(b1-2)Man(a1-6)]Man(b1-4)GlcNAc(b1-4)GlcNAc
In short: as §1

[22] = molecular target: Fuc(a1-2)[GalNAc(a1-3)]Gal(b1-4)GlcNAc(b1-2)Man(a1-3)[Fuc(a1-2)[GalNAc(a1-3)]Gal(b1-4)GlcNAc(b1-2)Man(a1-6)]Man(b1-4)GlcNAc(b1-4)[Fuc(a1-6)]GlcNAc
In short: as §1

[23] = molecular target: Fuc(a1-2)[GalNAc(a1-3)]Gal(b1-4)GlcNAc(b1-3)Gal(b1-4)GlcNAc
In short: as §1

[24] = molecular target: Fuc(a1-2)[GalNAc(a1-3)]Gal(b1-4)GlcNAc(b1-3)Gal(b1-4)GlcNAc(b1-3)Gal(b1-4)GlcNAc
In short: as §1

[25] = molecular target: Fuc(a1-2)[GalNAc(a1-3)]Gal(b1-4)GlcNAc(b1-3)GalNAc
In short: as §1

[26] = molecular target: Fuc(a1-2)[GalNAc(a1-3)]Gal(b1-4)GlcNAc(b1-3)[Fuc(a1-2)[GalNAc(a1-3)]Gal(b1-4)GlcNAc(b1-6)]GalNAc
In short: as §1

[27] = molecular target: Fuc(a1-2)[GalNAc(a1-3)]Gal(b1-4)GlcNAc(b1-6)GalNAc
In short: as §1

[28] = molecular target: Fuc(a1-2)[GalNAc(a1-3)]Gal(b1-4)[Fuc(a1-3)]GlcNAc
In short: as §1

[29] = molecular target: Fuc(a1-2)[GalNAc(a1-3)]Gal(b1-4)[Fuc(a1-3)]GlcNAc(b1-3)GalNAc
In short: as §1

[30] = molecular target: Fuc(a1-2)[GalNAc(a1-4)]Gal(b1-4)GlcNAc
In short: as §1

[31] = molecular target: Fuc(a1-2)[GalNAc(b1-3)]Gal
In short: as §1

Fuc(a1-3)GlcNAc = molecular target: Fuc(a1-3)GlcNAc
In short: as §1

[32] = molecular target: Fuc(a1-3)[Gal(b1-4)]Glc6S
In short: as §1

[33] = molecular target: Fuc(a1-3)[Gal(b1-4)]GlcNAc
In short: as §1

[34] = molecular target: Fuc(a1-3)[Gal(b1-4)]GlcNAc(b1-2)Man
In short: as §1

[35] = molecular target: Fuc(a1-3)[Gal(b1-4)]GlcNAc(b1-2)Man(a1-3)[Fuc(a1-3)[Gal(b1-4)]GlcNAc(b1-2)Man(a1-6)]Man(b1-4)GlcNAc(b1-4)GlcNAc
In short: as §1

[36] = molecular target: Fuc(a1-3)[Gal(b1-4)]GlcNAc(b1-2)Man(a1-3)[Fuc(a1-3)[Gal(b1-4)]GlcNAc(b1-2)Man(a1-6)]Man(b1-4)GlcNAc(b1-4)[Fuc(a1-6)]GlcNAc
In short: as §1

[37] = molecular target: Fuc(a1-3)[Gal(b1-4)]GlcNAc(b1-3)Gal(b1-3)[Fuc(a1-4)]GlcNAc
In short: as §1

[38] = molecular target: Fuc(a1-3)[Gal(b1-4)]GlcNAc(b1-3)Gal(b1-4)[Fuc(a1-3)]GlcNAc
In short: as §1

[39] = molecular target: Fuc(a1-3)[Gal(b1-4)]GlcNAc(b1-3)Gal(b1-4)[Fuc(a1-3)]GlcNAc(b1-3)Gal(b1-4)[Fuc(a1-3)]GlcNAc
In short: as §1

[40] = molecular target: Fuc(a1-3)[Gal(b1-4)]GlcNAc(b1-3)GalNAc
In short: as §1

[41] = molecular target: Fuc(a1-3)[Gal(b1-4)]GlcNAc(b1-6)GalNAc
In short: as §1

[42] = molecular target: Fuc(a1-3)[Gal(b1-4)]GlcNAc(b1-6)[Gal(b1-3)GlcNAc(b1-3)]Gal(b1-4)Glc
In short: as §1

[43] = molecular target: Fuc(a1-3)[Gal(b1-4)]GlcNAc6S
In short: as §1

[44] = molecular target: Fuc(a1-3)[Gal3S(b1-4)]Glc
In short: as §1

B1: LICBM33A (Lactococcus lactis), Q9CE94 (protein)
chain: MKKLLTGLLVAAGLLSVSLLIKTDTVSAHGYVQSPPARGYQGQLDSQSLGWTAAFNIYGNVISNPQSLEAPKGFPECGPADGRIASANGGLGQIGDFVLDNQTSSRWKKTSISTGSNIFTWKYTAPHKTTKWHYYMTKTGWDQNAPLKHSELELIGTINHDGSPATNNLSHTINIPTDRSGYHIVLAVWDVADTSNAFYNVIDINVNNKNASSQVFGPFL
glycan array binding signal (z-score) [1]: -0.401
glycan array binding signal (z-score) [2]: 0.05
glycan array binding signal (z-score) [3]: -0.57
glycan array binding signal (z-score) [4]: -0.026
glycan array binding signal (z-score) [5]: 0.076
glycan array binding signal (z-score) [6]: -0.107
glycan array binding signal (z-score) [7]: -0.909
glycan array binding signal (z-score) [8]: -1.52
glycan array binding signal (z-score) [9]: -0.212
glycan array binding signal (z-score) [10]: -0.183
glycan array binding signal (z-score) [11]: -0.585
glycan array binding signal (z-score) [12]: -0.512
glycan array binding signal (z-score) [13]: -0.295
glycan array binding signal (z-score) [14]: -0.264
glycan array binding signal (z-score) [15]: -0.211
glycan array binding signal (z-score) [16]: -0.433
glycan array binding signal (z-score) [17]: -0.701
glycan array binding signal (z-score) [18]: -0.171
glycan array binding signal (z-score) [19]: -0.259
glycan array binding signal (z-score) [20]: -0.298
glycan array binding signal (z-score) [21]: -0.686
glycan array binding signal (z-score) [22]: -0.265
glycan array binding signal (z-score) [23]: 0.34
glycan array binding signal (z-score) [24]: -0.394
glycan array binding signal (z-score) [25]: -0.617
glycan array binding signal (z-score) [26]: 0.513
glycan array binding signal (z-score) [27]: -0.17
glycan array binding signal (z-score) [28]: 0.106
glycan array binding signal (z-score) [29]: 0.403
glycan array binding signal (z-score) [30]: -0.035
glycan array binding signal (z-score) [31]: -0.401
glycan array binding signal (z-score) (Fuc(a1-3)GlcNAc): -0.493
glycan array binding signal (z-score) [32]: 1.01
glycan array binding signal (z-score) [33]: -0.685
glycan array binding signal (z-score) [34]: -0.118
glycan array binding signal (z-score) [35]: 1.65
glycan array binding signal (z-score) [36]: -0.76
glycan array binding signal (z-score) [37]: -0.369
glycan array binding signal (z-score) [38]: -1.02
glycan array binding signal (z-score) [39]: -0.442
glycan array binding signal (z-score) [40]: 0.32
glycan array binding signal (z-score) [41]: 1.73
glycan array binding signal (z-score) [42]: -0.329
glycan array binding signal (z-score) [43]: -0.073
glycan array binding signal (z-score) [44]: -0.544
